# Assay results published in the supplement of paper PMC6746778.
# “And” between values parts separate entries of the source, which are not always exact repeats. Equal values may be shown once. The list shows a part of the results. Many values rest on one well or one pass, so single values are uncertain.
# Tests used:
# Test in all cases: proliferation Z-score within cell line (SRB, relative to all inhibitors screened on that line); triple-negative breast cancer lines and a kinase inhibitor library; SRB is the sulforhodamine B protein stain; higher = less growth inhibition (more resistant)
# Settings in all cases: concentration: 1 µM; 4 days
# [1] = tested on: Bt20
# [2] = tested on: Bt549
# [3] = tested on: HCC1143
# [4] = tested on: HCC1806
# [5] = tested on: HCC1937
# [6] = tested on: HCC38
# [7] = tested on: HCC70
# [8] = tested on: Hs578T
# [9] = tested on: MDA-MB-231
# [10] = tested on: MDA-MB-435s
# [11] = tested on: MDA-MB-436
# [12] = tested on: MDA-MB-453
# [13] = tested on: MDA-MB-468
# [14] = tested on: SKBR7
# [15] = tested on: SUM1315MO2
# [16] = tested on: SUM149PT
# [17] = tested on: SUM159PT
# [18] = tested on: SUM185PE
# [19] = tested on: SUM229PE
# [20] = tested on: SUM52PE
# 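Further: Single-dose primary screen of a 378-member kinase inhibitor library in 96-well plates, with growth read as absorbance of protein-bound SRB dye after TCA fixation.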
SMILES,proliferation Z-score within cell line [1],proliferation Z-score within cell line [2],proliferation Z-score within cell line [3],proliferation Z-score within cell line [4],proliferation Z-score within cell line [5],proliferation Z-score within cell line [6],proliferation Z-score within cell line [7],proliferation Z-score within cell line [8],proliferation Z-score within cell line [9],proliferation Z-score within cell line [10],proliferation Z-score within cell line [11],proliferation Z-score within cell line [12],proliferation Z-score within cell line [13],proliferation Z-score within cell line [14],proliferation Z-score within cell line [15],proliferation Z-score within cell line [16],proliferation Z-score within cell line [17],proliferation Z-score within cell line [18],proliferation Z-score within cell line [19],proliferation Z-score within cell line [20]
COc1cc(CCc2cc(NC(=O)c3ccc(N4CC(C)NC(C)C4)cc3)n[nH]2)cc(OC)c1 (stereo not given),1.17,0.226,0.534,0.843,0.599,0.581,0.871,0.57,0.84,1.01,1.29,-0.71,1.37,0.959,-0.742,0.942,0.664,-1.26,0.72,-1.19
C=CC(=O)Nc1cccc(Oc2nc(Nc3ccc(N4CCN(C)CC4)cc3OC)ncc2Cl)c1,-0.841,0.531,0.842,0.617,0.711,0.626,0.823,0.746,0.27,0.305,0.865,0.716,-0.914,0.742,-0.562,-0.182,0.528,-0.318,-0.69,-0.586
CCn1c(N)c(C(=O)NC)c(=O)c2ccc(C#CC(C)(O)COC)nc21 (stereo not given),0.883,0.586,0.914,0.928,0.618,0.617,0.78,0.446,1.09,0.647,0.7,0.585,1.12,0.969,0.764,0.751,0.703,0.346,0.844,0.543
CC(C)N(CCC(=O)c1ccc2ccccc2c1)Cc1ccccc1,0.695,0.452,0.512,0.443,1.04,0.328,0.477,0.537,0.798,0.687,-0.614,0.506,0.669,0.431,1.06,0.699,0.419,0.421,0.31,0.849
CC(C)(C#N)c1ccc(N2C(=O)OCc3cnc4ccc(-c5cnc6ccccc6c5)cc4c32)cc1,-0.731,-1.62,0.119,0.367,-0.356,-0.128,-0.585,-1.88,-0.181,0.0801,-0.906,-1.13,0.152,-1.69,-0.887,-0.316,0.128,-1.22,-0.215,-0.577
C=CCc1ccc(O)c(-c2ccc(O)c(CC=C)c2)c1 [Honokiol],0.118,0.586,0.59,0.673,0.706,0.349,0.506,0.416,0.292,0.619,0.483,0.684,0.388,0.792,0.575,0.548,0.399,0.602,0.92,0.723
Cn1c(=O)c(F)c(Nc2ccc(I)cc2F)c2c(=O)n(C[C@@H](O)CO)cnc21,0.0153,0.0345,-1.37,-1.04,0.266,0.0381,-0.0586,-0.454,-1.34,-1.14,-0.145,-0.683,-0.822,0.743,-0.0186,-1.67,0.444,-0.316,-1.75,-1.06
N#Cc1c(Oc2ccc(F)c(NC(=O)Cc3cccc(C(F)(F)F)c3)c2)ccc2nc(NC(=O)C3CC3)sc12,0.626,0.584,0.65,0.969,0.146,0.469,0.488,0.337,-1.54,-2.18,-0.29,0.504,-0.397,0.274,-0.178,-0.296,0.277,-0.835,-0.785,-1.31
CN1CCN(c2cccc(Nc3nc4c(-c5ccc(S(C)(=O)=O)cc5)cccn4n3)c2)CC1,0.801,0.797,0.706,0.822,0.685,0.634,0.865,0.814,0.619,0.437,0.811,1.03,0.534,0.554,0.23,0.223,0.768,0.474,0.683,1.05
O=C(Nc1cccc(Nc2ncc(Br)c(NCCc3cnc[nH]3)n2)c1)N1CCCC1,0.273,-0.591,-0.851,0.22,-0.893,-0.454,0.641,0.402,-0.728,0.221,0.448,-0.902,-1.64,0.409,-0.922,0.392,0.594,-1.2,0.341,-1.37
CC1(COc2ccc3c(c2)ncn3-c2ccc3cccc(N4CCC(N)CC4)c3n2)COC1,1.07,0.47,0.355,0.952,0.717,0.382,0.726,0.482,0.507,0.629,0.452,0.292,0.294,-0.396,0.612,0.857,0.336,2.1,0.378,0.932
FC(F)(F)c1ccc(/C=C/c2nc(COc3ccc(CCCCn4ccnn4)cc3)co2)cc1 [Mubritinib (TAK 165)],-1.63,-2.89,-0.302,-1.22,-0.979,-3.29,-0.512,-1.62,-1.28,-0.931,-0.413,-1.58,-1.02,-2.16,0.097,-0.829,-1.27,-0.848,-2.16,-0.611
COc1ccc(-c2ccc3c(N4CCOC[C@@H]4C)nc(N4CCOC[C@@H]4C)nc3n2)cc1CO,-2.4,-2.92,-0.5,-1.98,-2.28,-2.85,-2.11,-3.09,-1.91,-2.12,-2.5,-2.09,-1.67,-2.51,-1.74,-1.84,-1.68,-1.9,-2.22,-1.46
O=C1NC(=O)/C(=C/c2ccc3nccc(-c4ccncc4)c3c2)S1,-2.64,-2.03,0.581,-1.54,0.751,-1.47,0.739,-2.08,-1.42,-1.27,0.989,-2.11,-1.03,-0.665,-0.709,-0.654,0.545,-1.8,-1.57,-1.23
N#CC[C@H](C1CCCC1)n1cc(-c2ncnc3[nH]ccc23)cn1,0.186 and 0.449,0.607 and 0.852,–,0.677 and 0.421,–,0.564 and 0.529,–,0.754 and 0.75,0.538 and 0.556,0.609 and 0.443,–,0.924 and 0.946,0.45 and 0.481,–,0.613 and 0.809,0.733 and 0.711,–,0.633 and 0.26,0.501 and 0.408,0.689 and 0.799
NCC(=O)Nc1ccc(-n2nc(C(F)(F)F)cc2-c2ccc3c(ccc4ccccc43)c2)cc1,1.28,0.699,1.22,0.806,0.853,0.499,0.888,0.44,-0.634,0.716,0.677,0.77,-0.118,0.382,1.13,0.862,0.63,1.45,0.639,1.07
CCN1C(=CC(C)=O)Sc2ccc(OC)cc21,0.546,0.045,0.787,-0.099,0.386,0.424,0.545,0.359,0.676,0.483,-0.503,-0.369,0.695,0.874,0.235,0.635,0.44,0.596,0.152,1.01
CN(c1ncccc1CNc1nc(Nc2ccc3c(c2)CC(=O)N3)ncc1C(F)(F)F)S(C)(=O)=O,0.859 and 0.327,–,–,-0.436 and -1.01,0.805 and 0.401,0.479 and 0.218,–,0.54 and 0.237,–,–,0.979 and 0.749,0.738 and 0.334,0.841 and 0.417,–,0.487 and 0.478,–,–,0.914 and 0.546,–,0.663 and 0.261
Cc1cc(Nc2nc(N[C@@H](C)c3ncc(F)cn3)ncc2Cl)[nH]n1,0.762,0.0344,0.622,0.612,0.918,0.143,0.704,-0.706,0.0093,0.0858,1.02,-0.817,-0.708,-0.479,-1.3,0.735,0.561,-1.67,0.495,-1.44
O=C1NCCc2[nH]c(-c3ccncc3)cc21,0.611,0.462,0.379,1.06,0.57,0.717,-0.218,0.958,0.596,1.06,1.46,-0.309,-0.056,0.458,1.07,0.974,0.502,0.847,0.935,0.715
CNc1nc(Nc2cnn(C3CCN(C4COC4)CC3F)c2Cl)ncc1C(F)(F)F (stereo not given),0.558,0.636,0.518,0.511,0.288,0.431,0.508,0.498,0.704,0.644,0.931,0.819,0.455,1.07,0.158,0.555,0.306,0.0037,0.337,0.547
COc1cc2ncnc(Nc3ccc(F)c(Cl)c3)c2cc1NC(=O)/C=C/CN1CCCCC1,-0.00668,0.768,-0.328,-1.03,-0.604,0.579,0.66,0.715,0.714,0.799,0.484,-0.654,-0.841,0.783,0.352,-0.215,0.682,0.504,-0.133,0.475
CN1CCCN(C(=O)c2cccc(-c3ccc(/C=C4/C(=O)Nc5ccc(Cl)cc54)o3)c2)CC1,-1.37,0.313,0.0471,0.562,0.206,0.506,-0.0269,0.709,-0.304,-0.152,-0.403,0.509,0.321,0.422,-0.505,-0.269,0.241,-0.291,-0.78,-0.459
C=CC(=O)Nc1cccc(Nc2nc(Nc3ccc(N4CCN(C(C)=O)CC4)cc3OC)ncc2C(F)(F)F)c1,0.488,0.285,0.149,-0.67,-0.109,0.481,0.511,0.396,0.39,0.129,0.396,-0.0726,-0.0398,0.786,0.0974,0.00208,0.49,-0.0263,-0.247,0.472
COc1cc2/c(=N/c3ccc(Br)cc3F)nc[nH]c2cc1OCC1CCN(C)CC1 [Vandetanib (ZD6474)],-0.882,0.813,-0.0447,-1.6,-0.369,0.411,-0.934,0.521,0.252,0.508,-0.442,1.14,-0.185,0.798,-0.601,-0.448,0.56,-0.422,-0.852,-0.651
Nc1ccc(C(=O)Nc2cccc(-c3nc(N4CCOCC4)c4oc5ncccc5c4n3)c2)cn1,0.0765,-0.0917,0.469,-0.758,0.468,0.372,0.659,0.27,0.689,0.592,0.582,0.0182,-0.756,-0.149,-0.62,1.16,0.505,-0.584,0.107,-0.935
OCCn1cc(-c2cnc3nnn(Cc4ccc5ncccc5c4)c3n2)cn1,1.12,0.569,0.753,0.573,0.559,0.593,0.731,0.632,0.846,1.17,0.998,0.743,0.756,0.736,0.772,0.877,0.5,0.885,1.06,1.17
